Data published in US20230174604A1.

Molecular target: T1, IL-2Rβ IH-Biotin (biotin-labeled human IL-2Rβ, UniProt P14784 aa27-240, with C-terminal avi tag and His6 tag) (human), P14784
T1 sequence: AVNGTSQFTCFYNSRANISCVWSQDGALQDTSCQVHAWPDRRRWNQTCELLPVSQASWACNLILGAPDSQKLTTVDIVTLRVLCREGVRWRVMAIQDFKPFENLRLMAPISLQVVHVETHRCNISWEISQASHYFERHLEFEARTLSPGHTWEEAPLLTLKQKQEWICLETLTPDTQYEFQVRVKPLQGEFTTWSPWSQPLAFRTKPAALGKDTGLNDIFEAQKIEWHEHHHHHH
Test: ForteBio BLI, biotinylated receptor on SA sensor, 100 nM IL-2-FC in solution, 1:1 model (avidity)
Conditions: remark: other sources report otherwise

- Kd: 16 nM
B1: IL-2^3X-FC fusion protein (IL-2^.3X-2*(G4S)-FcLALA) (Fc fusion)
chain: APTSSSTKKTQLQLEHLLLDLQMILNGINNYKNPKLTDMLTFEFYMPKKATELKHLQCLERELKPLEEVLNLAQSKNFHLRPRDLISNINVIVLELKGSETTFMCEYADETATIVEFLNRWITFSQSIISTLTGGGGSGGGGS[here human IgG1 Fc with changes without letters]
modifications: here or on the partner: biotin on the avi tag (enzymatic labeling with BirA)
